Data reported in PubChem BioAssay (NCI).
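These data come from cells grown in 96-well plates and exposed to compound for 48 hours at five concentrations. GI50 = concentration required for 50% inhibition of growth. TGI marks complete inhibition of growth.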 Numbered stars: 1 amine (or outer) side, 2 acyl side, 3 side chain; on linkers, the order of the positions; unused ones are H or OH. Square brackets hold non-standard residues; d marks the D form. Peptide text beside a SMILES is read from it. * marks the point of attachment. X9 = C/C=C/CC(C)C(O)[C@H](N[*:1])C(=O)[*:2]; Decanoyl = CCCCCCCCCC(=O)*; Leu(ol) = CC(C)C[C@H](N)CO; Iva = CC[C@](C)(N)C(=O)O; Aib = CC(C)(N)C(=O)O

These compounds were tested on NCI-H322M lung (assay: NCI anticancer screen, dose series, 48 h).
In the case of `Cc1[nH]c(C(=O)Nc2ccc(S(=O)(=O)N3CCCCC3)cc2OCCOCCOCCOCCOCCOCCOCCOCCOCCOc2cc(S(=O)(=O)N3CCCCC3)ccc2NC(=O)c2[nH]c(C)c3c2CCCCC3=O)c2c1C(=O)CCCC2`, the GI50 is reported as 1.01 µM and the TGI is reported as greater than 100 µM.
For `CN1CCN(c2ccc(Nc3nc(NCCNS(=O)(=O)c4ccc5ccccc5c4)c4sccc4n3)cc2)CC1`, the GI50 was 13.3 µM and the TGI was 26.9 µM.
For `C/C=C/CC(C)C(O)[C@H](NC(=O)[C@@H]1CCCN1C(=O)C(C)(C)NC(=O)CCCCCCCCC)C(=O)N[C@@](C)(CC)C(=O)N[C@@H](CCC(N)=O)C(=O)N[C@H](CCC(N)=O)C(=O)NC(C)(C)C(=O)N[C@@](C)(CC)C(=O)N[C@@H](CCC(N)=O)C(=O)N[C@H](CC(C)C)C(=O)N[C@H](CO)CC(C)C` (stereo partly drawn) (Decanoyl-[Aib]P[X9][Iva]Q[dQ][Aib][Iva]Q[dL][Leu(ol)]), the GI50 was 0.312 µM and the TGI was 1.23 µM.
